The chains are these.
B1: NLRP12, P59046 (protein)
chain: MLRTAGRDGLCRLSTYLEELEAVELKKFKLYLGTATELGEGKIPWGSMEKAGPLEMAQLLITHFGPEEAWRLALSTFERINRKDLWERGQREDLVRDTPPGGPSSLGNQSTCLLEVSLVTPRKDPQETYRDYVRRKFRLMEDRNARLGECVNLSHRYTRLLLVKEHSNPMQVQQQLLDTGRGHARTVGHQASPIKIETLFEPDEERPEPPRTVVMQGAAGIGKSMLAHKVMLDWADGKLFQGRFDYLFYINCREMNQSATECSMQDLIFSCWPEPSAPLQELIRVPERLLFIIDGFDELKPSFHDPQGPWCLCWEEKRPTELLLNSLIRKKLLPELSLLITTRPTALEKLHRLLEHPRHVEILGFSEAERKEYFYKYFHNAEQAGQVFNYVRDNEPLFTMCFVPLVCWVVCTCLQQQLEGGGLLRQTSRTTTAVYMLYLLSLMQPKPGAPRLQPPPNQRGLCSLAADGLWNQKILFEEQDLRKHGLDGEDVSAFLNMNIFQKDINCERYYSFIHLSFQEFFAAMYYILDEGEGGAGPDQDVTRLLTEYAFSERSFLALTSRFLFGLLNEETRSHLEKSLCWKVSPHIKMDLLQWIQSKAQSDGSTLQQGSLEFFSCLYEIQEEEFIQQALSHFQVIVVSNIASKMEHMVSSFCLKRCRSAQVLHLYGATYSADGEDRARCSAGAHTLLVQLPERTVLLDAYSEHLAAALCTNPNLIELSLYRNALGSRGVKLLCQGLRHPNCKLQNLRLKRCRISSSACEDLSAALIANKNLTRMDLSGNGVGFPGMMLLCEGLRHPQCRLQMIQLRKCQLESGACQEMASVLGTNPHLVELDLTGNALEDLGLRLLCQGLRHPVCRLRTLWLKICRLTAAACDELASTLSVNQSLRELDLSLNELGDLGVLLLCEGLRHPTCKLQTLRLGICRLGSAACEGLSVVLQANHNLRELDLSFNDLGDWGLWLLAEGLQHPACRLQKLWLDSCGLTAKACENLYFTLGINQTLTDLYLTNNALGDTGVRLLCKRLSHPGCKLRVLWLFGMDLNKMTHSRLAALRVTKPYLDIGC
B2: PTTG1, O95997 (protein)
chain: MATLIYVDKENGEPGTRVVAKDGLKLGSGPSIKALDGRSQVSTPRFGKTFDAPPALPKATRKALGTVNRATEKSVKTKGPLKQKQPSFSAKKMTEKTVKAKSSVPASDDAYPEIEKFFPFNPLDFESFDLPEEHQIAHLPLSGVPLMILDEERELEKLFQLGPPSPVKMPSPPWESNLLQSPSSILSTLDVELPPVCCDIDI
B3: UFL1, O94874 (protein)
chain: MADAWEEIRRLAADFQRAQFAEATQRLSERNCIEIVNKLIAQKQLEVVHTLDGKEYITPAQISKEMRDELHVRGGRVNIVDLQQVINVDLIHIENRIGDIIKSEKHVQLVLGQLIDENYLDRLAEEVNDKLQESGQVTISELCKTYDLPGNFLTQALTQRLGRIISGHIDLDNRGVIFTEAFVARHKARIRGLFSAITRPTAVNSLISKYGFQEQLLYSVLEELVNSGRLRGTVVGGRQDKAVFVPDIYSRTQSTWVDSFFRQNGYLEFDALSRLGIPDAVSYIKKRYKTTQLLFLKAACVGQGLVDQVEASVEEAISSGTWVDIAPLLPTSLSVEDAAILLQQVMRAFSKQASTVVFSDTVVVSEKFINDCTELFRELMHQKAEKEMKNNPVHLITEEDLKQISTLESVSTSKKDKKDERRRKATEGSGSMRGGGGGNAREYKIKKVKKKGRKDDDSDDESQSSHTGKKKPEISFMFQDEIEDFLRKHIQDAPEEFISELAEYLIKPLNKTYLEVVRSVFMSSTTSASGTGRKRTIKDLQEEVSNLYNNIRLFEKGMKFFADDTQAALTKHLLKSVCTDITNLIFNFLASDLMMAVDDPAAITSEIRKKILSKLSEETKVALTKLHNSLNEKSIEDFISCLDSAAEACDIMVKRGDKKRERQILFQHRQALAEQLKVTEDPALILHLTSVLLFQFSTHSMLHAPGRCVPQIIAFLNSKIPEDQHALLVKYQGLVVKQLVSQSKKTGQGDYPLNNELDKEQEDVASTTRKELQELSSSIKDLVLKSRKSSVTEE
B4: FOXA2, Q9Y261 (protein)
chain: MLGAVKMEGHEPSDWSSYYAEPEGYSSVSNMNAGLGMNGMNTYMSMSAAAMGSGSGNMSAGSMNMSSYVGAGMSPSLAGMSPGAGAMAGMGGSAGAAGVAGMGPHLSPSLSPLGGQAAGAMGGLAPYANMNSMSPMYGQAGLSRARDPKTYRRSYTHAKPPYSYISLITMAIQQSPNKMLTLSEIYQWIMDLFPFYRQNQQRWQNSIRHSLSFNDCFLKVPRSPDKPGKGSFWTLHPDSGNMFENGCYLRRQKRFKCEKQLALKEAAGAAGSGKKAAAGAQASQAQLGEAAGPASETPAGTESPHSSASPCQEHKRGGLGELKGTPAAALSPPEPAPSPGQQQQAAAHLLGPPHHPGLPPEAHLKPEHHYAFNHPFSINNLMSSEQQHHHSHHHHQPHKMDLKAYEQVMHYPGYGSPMPGSLAMGPVTNKTGLDASPLAADTSYYQGVYSRPIMNSS
B5: NFATC1, O95644 (protein)
chain: MPSTSFPVPSKFPLGPAAAVFGRGETLGPAPRAGGTMKSAEEEHYGYASSNVSPALPLPTAHSTLPAPCHNLQTSTPGIIPPADHPSGYGAALDGGPAGYFLSSGHTRPDGAPALESPRIEITSCLGLYHNNNQFFHDVEVEDVLPSSKRSPSTATLSLPSLEAYRDPSCLSPASSLSSRSCNSEASSYESNYSYPYASPQTSPWQSPCVSPKTTDPEEGFPRGLGACTLLGSPRHSPSTSPRASVTEESWLGARSSRPASPCNKRKYSLNGRQPPYSPHHSPTPSPHGSPRVSVTDDSWLGNTTQYTSSAIVAAINALTTDSSLDLGDGVPVKSRKTTLEQPPSVALKVEPVGEDLGSPPPPADFAPEDYSSFQHIRKGGFCDQYLAVPQHPYQWAKPKPLSPTSYMSPTLPALDWQLPSHSGPYELRIEVQPKSHHRAHYETEGSRGAVKASAGGHPIVQLHGYLENEPLMLQLFIGTADDRLLRPHAFYQVHRITGKTVSTTSHEAILSNTKVLEIPLLPENSMRAVIDCAGILKLRNSDIELRKGETDIGRKNTRVRLVFRVHVPQPSGRTLSLQVASNPIECSQRSAQELPLVEKQSTDSYPVVGGKKMVLSGHNFLQDSKVIFVEKAPDGHHVWEMEAKTDRDLCKPNSLVVEIPPFRNQRITSPVHVSFYVCNGKRKRSQYQRFTYLPANVPIIKTEPTDDYEPAPTCGPVSQGLSPLPRPYYSQQLAMPPDPSSCLVAGFPPCPQRSTLMPAAPGVSPKLHDLSPAAYTKGVASPGHCHLGLPQPAGEAPAVQDVPRPVATHPGSPGQPPPALLPQQVSAPPSSSCPPGLEHSLCPSSPSPPLPPATQEPTCLQPCSPACPPATGRPQHLPSTVRRDESPTAGPRLLPEVHEDGSPNLAPIPVTVKREPEELDQLYLDDVNEIIRNDLSSTSTHS
B6: NFIL3, Q16649 (protein)
chain: MQLRKMQTVKKEQASLDASSNVDKMMVLNSALTEVSEDSTTGEELLLSEGSVGKNKSSACRRKREFIPDEKKDAMYWEKRRKNNEAAKRSREKRRLNDLVLENKLIALGEENATLKAELLSLKLKFGLISSTAYAQEIQKLSNSTAVYFQDYQTSKSNVSSFVDEHEPSMVSSSCISVIKHSPQSSLSDVSEVSSVEHTQESSVQGSCRSPENKFQIIKQEPMELESYTREPRDDRGSYTASIYQNYMGNSFSGYSHSPPLLQVNRSSSNSPRTSETDDGVVGKSSDGEDEQQVPKGPIHSPVELKHVHATVVKVPEVNSSALPHKLRIKAKAMQIKVEAFDNEFEATQKLSSPIDMTSKRHFELEKHSAPSMVHSSLTPFSVQVTNIQDWSLKSEHWHQKELSGKTQNSFKTGVVEMKDSGYKVSDPENLYLKQGIANLSAEVVSLKRLIATQPISASDSG
B7: CAMTA2, O94983 (protein)
chain: MNTKDTTEVAENSHHLKIFLPKKLLECLPRCPLLPPERLRWNTNEEIASYLITFEKHDEWLSCAPKTRPQNGSIILYNRKKVKYRKDGYLWKKRKDGKTTREDHMKLKVQGMECLYGCYVHSSIVPTFHRRCYWLLQNPDIVLVHYLNVPALEDCGKGCSPIFCSISSDRREWLKWSREELLGQLKPMFHGIKWSCGNGTEEFSVEHLVQQILDTHPTKPAPRTHACLCSGGLGSGSLTHKCSSTKHRIISPKVEPRALTLTSIPHAHPPEPPPLIAPLPPELPKAHTSPSSSSSSSSSGFAEPLEIRPSPPTSRGGSSRGGTAILLLTGLEQRAGGLTPTRHLAPQADPRPSMSLAVVVGTEPSAPPAPPSPAFDPDRFLNSPQRGQTYGGGQGVSPDFPEAEAAHTPCSALEPAAALEPQAAARGPPPQSVAGGRRGNCFFIQDDDSGEELKGHGAAPPIPSPPPSPPPSPAPLEPSSRVGRGEALFGGPVGASELEPFSLSSFPDLMGELISDEAPSIPAPTPQLSPALSTITDFSPEWSYPEGGVKVLITGPWTEAAEHYSCVFDHIAVPASLVQPGVLRCYCPAHEVGLVSLQVAGREGPLSASVLFEYRARRFLSLPSTQLDWLSLDDNQFRMSILERLEQMEKRMAEIAAAGQVPCQGPDAPPVQDEGQGPGFEARVVVLVESMIPRSTWKGPERLAHGSPFRGMSLLHLAAAQGYARLIETLSQWRSVETGSLDLEQEVDPLNVDHFSCTPLMWACALGHLEAAVLLFRWNRQALSIPDSLGRLPLSVAHSRGHVRLARCLEELQRQEPSVEPPFALSPPSSSPDTGLSSVSSPSELSDGTFSVTSAYSSAPDGSPPPAPLPASEMTMEDMAPGQLSSGVPEAPLLLMDYEATNSKGPLSSLPALPPASDDGAAPEDADSPQAVDVIPVDMISLAKQIIEATPERIKREDFVGLPEAGASMRERTGAVGLSETMSWLASYLENVDHFPSSTPPSELPFERGRLAVPSAPSWAEFLSASTSGKMESDFALLTLSDHEQRELYEAARVIQTAFRKYKGRRLKEQQEVAAAVIQRCYRKYKQLTWIALKFALYKKMTQAAILIQSKFRSYYEQKRFQQSRRAAVLIQQHYRSYRRRPGPPHRTSATLPARNKGSFLTKKQDQAARKIMRFLRRCRHRMRELKQNQELEGLPQPGLAT

Data on seven molecules can be found in the supplement of paper PMC12423691.

Some of the results follow. Binding of human transcription factors and regulators to the viral nucleoprotein by AlphaScreen, crude cell-free proteins, amounts not normalised, one pass. Fold of the Venus control; higher = more signal. No active / inactive call. Single-pass screen; sequences are the whole Swiss-Prot entries looked up by name.

The experiment deals with nucleoprotein N of Crimean-Congo hemorrhagic fever virus. Put plainly: AlphaScreen luminescence signal relative to Venus negative control (fold); higher = stronger binding to CCHFV N. The method, then: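 AlphaScreen binding of cell-free made, FLAG-GST-tagged human transcription factors and regulators (crude translation products) to biotinylated N protein; signal as fold of the FLAG-GST-Venus control. One pass.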
On the technique in general: Bead proximity is the source of the signal in Alpha formats.
The molecule B1 displayed an AlphaScreen luminescence signal of 2. Molecule B2 returned an AlphaScreen luminescence signal of 6.56. For B3, the AlphaScreen luminescence signal stood at 9.44. In the case of B4 it was 2.19. In turn, B5 returned an AlphaScreen luminescence signal of 2.33. The molecule B6 registered an AlphaScreen luminescence signal of 3.02.

For the molecule B7, the AlphaScreen luminescence signal was determined as 2.47.
